According to the supplement of paper PMC11417369:
± gives the standard deviation of the averaged measurements. The list shows a part of the results.

The sequences below were run on PfAP2-EXP AP2 domain (GST-tagged) (assay: gcPBM binding intensity (ln(normalized median fluorescence intensity)); higher = stronger DNA binding).
Summary of the method: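 Binding intensity is defined as the maximum Masliner-normalised natural-log median intensity across replicate spots for either probe orientation. It was measured on an Agilent 4 × 180k array of primer-extended double-stranded 36-bp intergenic genomic probes and negative controls, to which GST-tagged P. falciparum DNA-binding domains made in E. coli were applied for 1 h in 1× PBS with 1% milk, 0.2 mg/ml BSA, 0.5% salmon testes DNA and 0.03% Triton X-100. Detection was by Alexa488 anti-GST antibody and scanning at 488 nm.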
For “TTTTATAATTTGAGAACATGCAACATAAATATAAAG [TGCATGCA_site965]”, the “gcPBM binding intensity (ln)” value was 9.05 ± 0.41.
With “TTTATTAAATATATATGTACATATCAAAATGTATAA [XGTACX_site3181]” the “gcPBM binding intensity (ln)” value was 8.47 ± 0.35.
With “TTTTTTTTCTATTGAGCACACATATCACGATTAGTA [CACACA_site7992]” the “gcPBM binding intensity (ln)” value was 8.56 ± 0.35.
For “GTTAAACATCTTCTGTGATATGTTAGAATATTATTT [CACACA_negctrl_site687]”, the “gcPBM binding intensity (ln)” value was 8.35 ± 0.31.
For “TATTTCACAAACCTTACATGCGGTTTATTTATATAT [TGCATGCA_site123]”, the “gcPBM binding intensity (ln)” value was 8.94 ± 0.47.
“ATAATTTATATCATTACACACATTTTTTATATTTTT [CACACA_site3450]” was tested, and the “gcPBM binding intensity (ln)” value was 8.6 ± 0.36.
With “TTTTTGAATGTTTGCACACAAATCTCATAATTTTAG [CACACA_site357]” the “gcPBM binding intensity (ln)” value was 8.38 ± 0.16.
For “TAGTTACATAAAATATGTACGTATAATTTTTTTATT [XGTACX_site3847]”, the “gcPBM binding intensity (ln)” value was 8.29 ± 0.16.
In the case of “ATATTTTCAGTTCTCCATTATGTTCCCATTATTTTT [CACACA_negctrl_site990]”, the “gcPBM binding intensity (ln)” value is reported as 9.12 ± 0.46.
For CATGAATATTTTAATGTGCACATTTATCATTATATG, the “gcPBM binding intensity (ln)” value was 8.84 ± 0.42.
For “CCAAACTAAATGTACACACATACATAAATATAAATA [CACACA_site1141]”, the “gcPBM binding intensity (ln)” value was 8.71 ± 0.57.
For “ATGTAATAAATATACACACACAAATATATATATATA [CACACA_site2395]”, the “gcPBM binding intensity (ln)” value was 10 ± 0.42.
In the case of “ACCTATGTATATTATACACACTCCAAACTATTCTTT [CACACA_site6939]”, the “gcPBM binding intensity (ln)” value is reported as 8.89 ± 0.43.
With “ATATTATATAACTTTTGTACGAACTATTTTATATAT [XGTACX_site6]” the “gcPBM binding intensity (ln)” value was 8.7 ± 0.54.
In the case of “AAAAAAAAATATATATGTACATATGTATAATAAAAA [XGTACX_site2110]”, the “gcPBM binding intensity (ln)” value is reported as 8.63 ± 0.39.
In the case of “TTTAGAGAAGTCAAGTGTACATATAAAATAATTCAC [XGTACX_site4997]”, the “gcPBM binding intensity (ln)” value is reported as 8.55 ± 0.3.
In the case of “ATAAAAATAAATAAATTATATAAATGTAATATGAAA [GTGCAC_negctrl_site663]”, the “gcPBM binding intensity (ln)” value is reported as 8.44 ± 0.37.
For “TATTTATTTATATATGCATGCTAATAATTATAACAT [TGCATGCA_site988]”, the “gcPBM binding intensity (ln)” value was 9.29 ± 0.6.
“AATGAAGACTTTTTTACACACTTCATATATTATATA [CACACA_site2034]” was tested, and the “gcPBM binding intensity (ln)” value was 8.81 ± 0.36.
With “GTATAATTGGAAATTACACACCTTATAATGTAACAT [CACACA_site6091]” the “gcPBM binding intensity (ln)” value was 8.38 ± 0.33.
With “AATGATTTTAAAAAATGTACTTTATAAACAAAATTA [XGTACX_site3803]” the “gcPBM binding intensity (ln)” value was 8.27 ± 0.32.
“TAAATTAGAATAAATACACACAAATTAGAATTCTAT [CACACA_site7781]” was tested, and the “gcPBM binding intensity (ln)” value was 8.61 ± 0.72.
For “TTTTTTTTTGTTAGTTGTACGTTAAATGAATTTACT [XGTACX_site7675]”, the “gcPBM binding intensity (ln)” value was 8.71 ± 0.32.
“TAAAGTGTCAAATTCACACACATATATATATATATA [CACACA_site1380]” was tested, and the “gcPBM binding intensity (ln)” value was 10.1 ± 0.57.
In the case of “TAAAAAAGTTATATTACACACTTTATTGGTTAACTT [CACACA_site653]”, the “gcPBM binding intensity (ln)” value is reported as 8.17 ± 0.45.
“ACATATAAATTATATACACACAATAATATATATATA [CACACA_site1384]” was tested, and the “gcPBM binding intensity (ln)” value was 9.47 ± 0.36.
In the case of “TATTTATAAAAAAAATGTACATTTATGTATAAGCTA [XGTACX_site3266]”, the “gcPBM binding intensity (ln)” value is reported as 8.62 ± 0.47.
“ATAATGTTTCTTTCAACACACAAAAAATGAACCCAT [CACACA_site4947]” was tested, and the “gcPBM binding intensity (ln)” value was 8.85 ± 0.49.
With “AATATCAATATTATATGTACTTATAATTTCAATGTA [XGTACX_site2423]” the “gcPBM binding intensity (ln)” value was 8.44 ± 0.28.
For “TAAATTTATTAATCAAGTACAAAATAAATTTTTATA [XGTACX_site2745]”, the “gcPBM binding intensity (ln)” value was 8.1 ± 0.41.
In the case of “TATATATAGAAACACACACACACATATATATATATA [CACACA_site4116]”, the “gcPBM binding intensity (ln)” value is reported as 10.1 ± 0.39.
“AAAATTTAATATAATGCACACATAAAAAAAAAATCA [CACACA_site7882]” was tested, and the “gcPBM binding intensity (ln)” value was 8.725 ± 0.035.
For “ATCATGTTATATATATGTACTAATAATATAATATAA [XGTACX_site1326]”, the “gcPBM binding intensity (ln)” value was 8.29 ± 0.34.
“AGTCGAATGATGTACACACATACAAAACATTTATGC [CACACA_site4022]” was tested, and the “gcPBM binding intensity (ln)” value was 8.91 ± 0.71.
For “AGTTTATATTATTAAAGTACATATATATATTCTTAA [XGTACX_site3164]”, the “gcPBM binding intensity (ln)” value was 8.39 ± 0.33.
With “TACTAACTTTTTAAAAGTACAGAACCATAACCATAA [XGTACX_site7182]” the “gcPBM binding intensity (ln)” value was 8.85 ± 0.39.
“GAATAATCTAGAAACACACAAACACGACAAAAGAAA [CACACA_site4135]” was tested, and the “gcPBM binding intensity (ln)” value was 8.93 ± 0.55.
In the case of “ATATATATATATATATGGTAAAGTAAAAGGAAATAC [XGTACX_negctrl_site45]”, the “gcPBM binding intensity (ln)” value is reported as 10.3 ± 0.3.
In the case of “TATATATTATAAAAGAGTACAGAAAGAAAAAAAAAT [XGTACX_site8305]”, the “gcPBM binding intensity (ln)” value is reported as 9.12 ± 0.59.
“AAACTTTTTTTAAAAACACACATATATATTTATATA [CACACA_site4092]” was tested, and the “gcPBM binding intensity (ln)” value was 8.36 ± 0.41.
“ATATTCAATATATTATGTACACATATATGAGGATAT [XGTACX_site7019]” was tested, and the “gcPBM binding intensity (ln)” value was 8.65 ± 0.41.
In the case of “AGTATATTAATATAATGTACAAACGTTTATTTTGTA [XGTACX_site5980]”, the “gcPBM binding intensity (ln)” value is reported as 8.59 ± 0.42.
In the case of “GTTTAAAATCTTTGCACACATATAAATAAATATATT [CACACA_site2555]”, the “gcPBM binding intensity (ln)” value is reported as 8.63 ± 0.15.
For “AAATATCTACATATTTGTACATATTTATACATATTT [XGTACX_site6300]”, the “gcPBM binding intensity (ln)” value was 8.23 ± 0.3.
In the case of “GAAAAGTAGACAATATGTACATATAGTATTTATAAA [XGTACX_site878]”, the “gcPBM binding intensity (ln)” value is reported as 8.6 ± 0.42.
With “AGCAACCCCCTAGCTACACACATATAGATATAAATA [CACACA_site6577]” the “gcPBM binding intensity (ln)” value was 9.63 ± 0.36.
In the case of “ACTGTCATTTATTGTAGTACGTCAATTTATTACATT [XGTACX_site2749]”, the “gcPBM binding intensity (ln)” value is reported as 8.87 ± 0.29.
With “TGTTACAAAAAATAATGTACTTAATATATATATATA [XGTACX_site1016]” the “gcPBM binding intensity (ln)” value was 9.74 ± 0.33.
For “TATCTTCATTTTTTTGGTACGCACGCAAATATGGCT [XGTACX_site3107]”, the “gcPBM binding intensity (ln)” value was 8.79 ± 0.52.
With “TAAATACATTTATGTACACACACATAGATGTATATT [CACACA_site5618]” the “gcPBM binding intensity (ln)” value was 8.34 ± 0.22.
In the case of “TGTTTTCTTGATTATTGTACTTTAATTAGTAATATG [XGTACX_site8674]”, the “gcPBM binding intensity (ln)” value is reported as 8.7 ± 0.37.
For “TGAATATTCATGTGTGTGCGCATGTTGTTAGACCAT [GTGCAC_site9869]”, the “gcPBM binding intensity (ln)” value was 9.02 ± 0.38.
With “AAAAATATTATAAGCACACATATATATATATATATA [CACACA_site2458]” the “gcPBM binding intensity (ln)” value was 10.3 ± 0.28.
With “TATAATATGTTATATACACACATTATAAAATACACA [CACACA_site6742]” the “gcPBM binding intensity (ln)” value was 8.49 ± 0.37.
For “AAAAAAAAAATTAATTGTACTAAAAAAATATTATAT [XGTACX_site8903]”, the “gcPBM binding intensity (ln)” value was 8.41 ± 0.37.
With “TAATAATAAATAAAATGTACATATGAACAAATAAGT [XGTACX_site6710]” the “gcPBM binding intensity (ln)” value was 9.14 ± 0.3.
With “ATATATATATATATATGTACATACATACAATCATAT [XGTACX_site6410]” the “gcPBM binding intensity (ln)” value was 10.3 ± 0.45.
